Experimental data as given in patent US20250019377A1 (JACOBIO PHARMACEUTICALS CO., LTD, priority 2021, published 2025).

Legend:
[1] = tested on: p-ERK in AGS cells (K-Ras G12D); experiment: Phospho-ERK1/2(THR202/TYR204) HTRF assay, AGS; type: cell-based; details: Homo sapiens, 2 h, 2 hours incubation
[2] = tested on: p-ERK in SW620 cells (K-Ras G12V); experiment: Phospho-ERK1/2(THR202/TYR204) HTRF assay, SW620; type: cell-based; details: Homo sapiens, SW-620, 2 h, 2 hours incubation
[3] = tested on: p-ERK in NCI-H358 cells (K-Ras G12C); experiment: Phospho-ERK1/2(THR202/TYR204) HTRF assay, NCI-H358; type: cell-based; details: Homo sapiens, 2 hours incubation
[4] = tested on: p-ERK in TCC-PAN2 cells (K-Ras G12R); experiment: Phospho-ERK1/2(THR202/TYR204) HTRF assay, TCC-PAN2; type: cell-based; details: 2 hours incubation
[5] = tested on: p-ERK in NCI-H460 cells (K-Ras Q61H); experiment: Phospho-ERK1/2(THR202/TYR204) HTRF assay, NCI-H460; type: cell-based; details: Homo sapiens, 2 hours incubation
[6] = tested on: p-ERK in MKN-1 cells (K-Ras WT amplification); experiment: Phospho-ERK1/2(THR202/TYR204) HTRF assay, MKN-1; type: cell-based; details: Homo sapiens; MKN-1, K-Ras WT, 2 hours incubation
[7] = tested on: p-ERK in NCI-H747 cells (K-Ras G13D)

Structure (SMILES)	IC50 [1]	IC50 [2]	IC50 [3]	IC50 [4]	IC50 [5]	IC50 [6]	IC50 [7]
C#Cc1c(F)ccc2cc(O)cc(-c3ncc4c(N5CCOC[C@@H](CC#N)C5)nc(OC[C@@]56CCCN5C[C@H](F)C6)nc4c3F)c12 (single isomer, unassigned) [Compound 14A]	537 nM	890 nM	–	–	–	–	–
C#Cc1c(F)ccc2cc(O)cc(-c3ncc4c(N5CCCOCC5)nc(OCC5(CN6CCOCC6)CC5)nc4c3F)c12 [Compound 64, 5-ethynyl-6-fluoro-4-(8-fluoro-2-((1-(morpholinomethyl)cyclopropyl)methoxy)-4-(1,4-oxazepan-4-yl)pyrido[4,3-d]pyrimidin-7-yl)naphthalen-2-ol trifluoroacetic acid]	4.32 nM	10.9 nM	–	–	–	–	–
C#Cc1c(F)ccc2cc(O)cc(-c3ncc4c(N5CCOC[C@H](F)C5)nc(OC[C@@]56CCCN5C[C@H](F)C6)nc4c3F)c12 (single isomer, unassigned) [Compound 12B]	–	–	1.19 nM	67.8 nM	5.43 nM	1.76 nM	1.96 nM
C#Cc1c(F)ccc2cc(O)cc(-c3ncc4c(N5CCOCC6CC65)nc(OC[C@@]56CCCN5C[C@H](F)C6)nc4c3F)c12 (stereo partly drawn) [Compound 33, 4-(4-(5-oxa-2-azabicyclo[5.1.0]octan-2-yl)-8-fluoro-2-(((2R,7aS)-2-fluorotetrahydro-1H-pyrrolizin-7a(5H)-yl)methoxy)pyrido[4,3-d]pyrimidin-7-yl)-5-ethynyl-6-fluoronaphthalen-2-ol]	1.36 nM	4 nM	1.73 nM	94 nM	2.26 nM	1.44 nM	–
